These results are taken from the antibiotic and cytotoxicity screens of Wong et al. (2023).

For one assay, the system named is HSkMC. Put plainly: cytotoxicity call (relative viability < 0.9). The note with it: 10 µM.
The next assay concerns HepG2. Put plainly: cytotoxicity call (relative viability < 0.9). Conditions: 10 µM.
Another assay relates to S. aureus RN4220. Put plainly: growth inhibition call (relative growth <= 0.2). The note with it: 50 µM.

The structures appear in SMILES notation. The list shows a part of the results.

For the compound `Cc1ccc(S(=O)(=O)N2C[C@@H](O)COC[C@H]3O[C@@H](CC(=O)N[C@H]4CCN(Cc5ccccc5)C4)CC[C@@H]32)cc1`, the cytotoxicity call with HSkMC and in the assay with HepG2 was “inactive” each time. The growth inhibition call in the assay with S. aureus RN4220 is “inactive”.

Consider `C=c1[nH]/c(=C/c2cccnc2)c(=O)o1`, for which the cytotoxicity call in the assay with HSkMC and in the assay with HepG2 was “inactive” each time. Also, in the assay with S. aureus RN4220, the growth inhibition call was “inactive”.

Regarding `Nc1ccc(-n2cc(CCC(=O)NO)nn2)cc1`, the cytotoxicity call in the assay with HSkMC and in the assay on HepG2 was “inactive” throughout. Further, the growth inhibition call in the assay on S. aureus RN4220 is “inactive”.

Regarding `CO[C@@H]1CN(C)C(=O)c2cc(NC(=O)C3CC3)ccc2OC[C@@H](C)N(C(=O)Cc2ccccn2)C[C@@H]1C`, the cytotoxicity call in the assay with HSkMC and in the assay with HepG2 was “inactive” throughout. In the assay with S. aureus RN4220, the growth inhibition call was “inactive”.

Consider `CC(C)NC(=O)N(C)C[C@@H]1Oc2ccc(NS(=O)(=O)c3cccs3)cc2CC(=O)N([C@H](C)CO)C[C@@H]1C`, for which the cytotoxicity call in the assay on HSkMC and in the assay on HepG2 was “inactive” each time. Also, in the assay on S. aureus RN4220, the growth inhibition call is “inactive”.

In the case of `CCCC#Cc1ccc2c(c1)O[C@H](CN(C)S(=O)(=O)c1cccc(F)c1)[C@@H](C)CN([C@@H](C)CO)S2(=O)=O`, the cytotoxicity call in the assay with HSkMC and in the assay with HepG2 was “inactive” each time. Also, the growth inhibition call with S. aureus RN4220 is “inactive”.

Consider `COc1ccc(S(=O)(=O)N(C)C[C@H]2Oc3ccc(NS(=O)(=O)c4ccc(C)cc4)cc3C(=O)N([C@H](C)CO)C[C@H]2C)cc1`, for which the cytotoxicity call in the assay on HSkMC and in the assay with HepG2 was “inactive” throughout. In addition, the growth inhibition call with S. aureus RN4220 is “inactive”.

On to `C=CCOC(=O)[C@@H]1[C@H]2C(=O)O[C@H](c3ccccc3)[C@H](c3ccccc3)N2[C@H](c2ccccc2OCCO)[C@@]12C(=O)Nc1ccc(I)cc12`, for which the cytotoxicity call in the assay on HSkMC and with HepG2 was “inactive” throughout. The growth inhibition call in the assay with S. aureus RN4220 is “inactive”.

In the case of `COCC(=O)Nc1ccc2c(c1)C(=O)N(C)C[C@@H](OC)[C@@H](C)CN(C(=O)Cc1cccnc1)[C@H](C)CO2`, the cytotoxicity call with HSkMC and with HepG2 was “inactive” each time. Further, in the assay on S. aureus RN4220, the growth inhibition call is “inactive”.

Take `C[C@@H]1CCCCO[C@@H](CN(C)Cc2ccc(C(F)(F)F)cc2)[C@H](C)CN([C@@H](C)CO)C(=O)c2cc(NC(=O)Nc3ccc(C(F)(F)F)cc3)ccc2O1`: in the assay on HSkMC, the cytotoxicity call is “active”. Moreover, the cytotoxicity call in the assay on HepG2 was “inactive”. Besides, the growth inhibition call in the assay on S. aureus RN4220 is “inactive”.

Take `Cn1cnc(S(=O)(=O)N2C[C@H](O)COC[C@H]3O[C@H](CC(=O)NCc4cc(F)cc(F)c4)CC[C@@H]32)c1`: the cytotoxicity call in the assay on HSkMC and in the assay with HepG2 was “inactive” each time. The growth inhibition call with S. aureus RN4220 is “inactive”.

Consider `CCCCCCCCC(=O)O`, for which the cytotoxicity call in the assay with HSkMC and in the assay with HepG2 was “inactive” in each case. In the assay with S. aureus RN4220, the growth inhibition call is “inactive”.

For the compound `CC(C)NC(=O)N(C)C[C@@H]1Oc2ccc(NC(=O)CCC(F)(F)F)cc2C(=O)N([C@H](C)CO)C[C@H]1C`, the cytotoxicity call in the assay with HSkMC and in the assay on HepG2 was “inactive” each time. The growth inhibition call in the assay with S. aureus RN4220 was “inactive”.

In the case of `C[C@H](CO)N1C[C@H](C)[C@H](CN(C)Cc2ccc(C(=O)Nc3ccccc3N)cc2)Oc2ccc(NC(=O)NC3CCCCC3)cc2C1=O`, the cytotoxicity call with HSkMC and in the assay on HepG2 was “inactive” in each case. Besides, the growth inhibition call in the assay on S. aureus RN4220 is “inactive”.

Regarding `COc1ccc(S(=O)(=O)N(C)C[C@H]2Oc3c(NC(=O)c4cc(C)nn4C)cccc3C(=O)N([C@H](C)CO)C[C@@H]2C)cc1`, the cytotoxicity call with HSkMC and in the assay with HepG2 was “inactive” each time. In addition, the growth inhibition call in the assay with S. aureus RN4220 was “inactive”.

Take `C[C@@H]1CN([C@H](C)CO)C(=O)c2cccc(NC(=O)c3ccc(-c4nccs4)cc3)c2O[C@@H]1CN(C)CC1CCCCC1`: the cytotoxicity call in the assay on HSkMC and in the assay with HepG2 was “inactive” throughout. Moreover, the growth inhibition call with S. aureus RN4220 is “inactive”.

For `CCCNC(=O)N(C)C[C@@H]1Oc2cc(-c3ccccc3F)ccc2S(=O)(=O)N([C@@H](C)CO)C[C@@H]1C`, the cytotoxicity call with HSkMC and in the assay on HepG2 was “inactive” each time. Also, the growth inhibition call in the assay with S. aureus RN4220 was “inactive”.

For the compound `Cc1noc(C)c1S(=O)(=O)Nc1ccc2c(c1)C(=O)N([C@H](C)CO)C[C@H](C)[C@@H](CN(C)CC1CCCCC1)OCCCC[C@@H](C)O2`, the cytotoxicity call with HSkMC and in the assay with HepG2 was “inactive” in each case. Moreover, the growth inhibition call in the assay on S. aureus RN4220 was “inactive”.

On to `CO[C@H]1CN(C)C(=O)c2ccc(NS(=O)(=O)CC(F)(F)F)cc2OC[C@H](C)N(Cc2cccnc2)C[C@@H]1C`, for which the cytotoxicity call in the assay with HSkMC and in the assay on HepG2 was “inactive” in each case. In the assay on S. aureus RN4220, the growth inhibition call is “inactive”.

With `CC(C)NC(=O)N(C)C[C@@H]1Oc2ccc(NC(=O)CCC(F)(F)F)cc2CC(=O)N([C@H](C)CO)C[C@H]1C`, the cytotoxicity call with HSkMC and in the assay on HepG2 was “inactive” throughout. For the same compound, the growth inhibition call with S. aureus RN4220 is “inactive”.

As for `O=C(Nc1ccc2c(c1)[C@H]1C[C@H](CC(=O)N3CCc4ccccc4C3)O[C@H](CO)[C@H]1O2)C1CCOCC1`, the cytotoxicity call in the assay on HSkMC and in the assay with HepG2 was “inactive” throughout. Moreover, the growth inhibition call with S. aureus RN4220 is “inactive”.

In the case of `O=C(O)c1ccc[n+]([O-])c1`, the cytotoxicity call in the assay with HSkMC and in the assay with HepG2 was “inactive” throughout. For the same compound, the growth inhibition call in the assay with S. aureus RN4220 is “inactive”.

For `C[C@H](CO)N1C[C@H](C)[C@H](CN(C)CC2CC2)OCCCC[C@H](C)Oc2ccc(NS(=O)(=O)c3cn(C)cn3)cc2C1=O`, the cytotoxicity call in the assay on HSkMC and with HepG2 was “inactive” throughout. The growth inhibition call with S. aureus RN4220 was “inactive”.

Regarding `CO[C@H]1CN(C)C(=O)c2cc(NC(=O)C3CC3)ccc2OC[C@H](C)N(C(=O)Cc2ccccn2)C[C@@H]1C`, the cytotoxicity call in the assay on HSkMC and in the assay on HepG2 was “inactive” throughout. For the same compound, the growth inhibition call in the assay with S. aureus RN4220 was “inactive”.

`C[C@@H]1CN([C@H](C)CO)C(=O)c2cc(NS(=O)(=O)c3ccccc3)ccc2O[C@@H]1CN(C)Cc1ccc(-c2ccccc2)cc1`: the cytotoxicity call with HSkMC and in the assay with HepG2 was “inactive” each time. The growth inhibition call with S. aureus RN4220 was “inactive”.

For `Cc1nnc(SCC2=C(C(=O)[O-])N3C(=O)C(NC(=O)Cn4cnnn4)C3SC2)s1.[Na+]` (stereo not drawn), the cytotoxicity call in the assay on HSkMC (human skeletal muscle cells) and in the assay with HepG2 was “inactive” each time. Besides, in the assay with S. aureus RN4220, the growth inhibition call is “active”.
